Source: the supplement of paper PMC8728848
This is one part of the list.

What was measured:
Test in all cases: glycan array binding signal (z-score within array); higher = stronger binding
Conditions in all cases: glycan notation: IUPAC condensed, linker removed; mutation: Y228A
[1] = target: Gal(a1-3)Gal(b1-4)GlcNAc
Outline: (§1)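 Glycan array binding is given as a within-array Z-score, which can be read as non-binding when negative. The arrays, 3228 of them, came from the Consortium for Functional Glycomics database and were retained only where the protein sequence was available. Z-scores were averaged across arrays of the same protein sequence at different concentrations or buffers and across linkers.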

[2] = target: Gal(a1-3)Gal(b1-4)GlcNAc(b1-2)Man
Outline: as §1

[3] = target: Gal(a1-3)Gal(b1-4)GlcNAc(b1-2)Man(a1-3)[Gal(a1-3)Gal(b1-4)GlcNAc(b1-2)Man(a1-6)]Man(b1-4)GlcNAc(b1-4)GlcNAc
Outline: as §1

[4] = target: Gal(a1-3)Gal(b1-4)GlcNAc(b1-3)GalNAc
Outline: as §1

[5] = target: Gal(a1-3)Gal(b1-4)GlcNAc(b1-6)GalNAc
Outline: as §1

[6] = target: Gal(a1-3)Gal(b1-4)[Fuc(a1-3)]GlcNAc
Outline: as §1

[7] = target: Gal(a1-3)Gal(b1-4)[Fuc(a1-3)]GlcNAc(b1-2)Man(a1-3)[Gal(a1-3)Gal(b1-4)[Fuc(a1-3)]GlcNAc(b1-2)Man(a1-6)]Man(b1-4)GlcNAc(b1-4)GlcNAc
Outline: as §1

[8] = target: Gal(a1-3)GalNAc
Outline: as §1

[9] = target: Gal(a1-3)[Gal(a1-4)]Gal(b1-4)GlcNAc
Outline: as §1

[10] = target: Gal(a1-4)Gal(b1-3)GlcNAc(b1-2)Man(a1-3)[Gal(a1-4)Gal(b1-3)GlcNAc(b1-2)Man(a1-6)]Man(b1-4)GlcNAc(b1-4)GlcNAc
Outline: as §1

[11] = target: Gal(a1-4)Gal(b1-4)Glc
Outline: as §1

[12] = target: Gal(a1-4)Gal(b1-4)GlcNAc
Outline: as §1

[13] = target: Gal(a1-4)Gal(b1-4)GlcNAc(b1-2)Man(a1-3)[Gal(a1-4)Gal(b1-4)GlcNAc(b1-2)Man(a1-6)]Man(b1-4)GlcNAc(b1-4)GlcNAc
Outline: as §1

[14] = target: Gal(a1-4)Gal(b1-4)GlcNAc(b1-3)Gal(b1-4)Glc
Outline: as §1

[15] = target: Gal(a1-4)GlcNAc
Outline: as §1

[16] = target: Gal(a1-6)Glc
Outline: as §1

[17] = target: Gal(b1-2)Gal
Outline: as §1

[18] = target: Gal(b1-3)Gal
Outline: as §1

[19] = target: Gal(b1-3)Gal(b1-4)GlcNAc
Outline: as §1

[20] = target: Gal(b1-3)GalNAc
Outline: as §1

[21] = target: Gal(b1-3)GalNAc(a1-3)[Fuc(a1-2)]Gal(b1-4)Glc
Outline: as §1

[22] = target: Gal(b1-3)GalNAc(a1-3)[Fuc(a1-2)]Gal(b1-4)GlcNAc
Outline: as §1

[23] = target: Gal(b1-3)GalNAc(b1-3)Gal
Outline: as §1

[24] = target: Gal(b1-3)GalNAc(b1-3)Gal(a1-4)Gal(b1-4)Glc
Outline: as §1

[25] = target: Gal(b1-3)GalNAc(b1-4)Gal(b1-4)Glc
Outline: as §1

[26] = target: Gal(b1-3)GalNAc(b1-4)[Neu5Ac(a2-3)]Gal(b1-4)Glc
Outline: as §1

[27] = target: Gal(b1-3)GlcNAc
Outline: as §1

[28] = target: Gal(b1-3)GlcNAc(a1-3)Gal(b1-4)GlcNAc
Outline: as §1

[29] = target: Gal(b1-3)GlcNAc(a1-6)Gal(b1-4)GlcNAc
Outline: as §1

[30] = target: Gal(b1-3)GlcNAc(b1-2)Man
Outline: as §1

B1: Epa1-NP-mutant-Y228A (Candida glabrata), Q6VBJ0 (protein)
chain: MILNPALFLNKCVCIYTTLILLLLTNGGYATSSNDISLASKDPTTFPLGCSPDITTPKKGLSMELYSYDFRKKGSYPCWDAAYLDPNYPRTGYKSHRLLAKVDGVTGNINFYYHATKGCTPQLGHLPASYNYPKPLTMTNFTMLLYGYFRPKVTGFHTFTISADDLLFVNFGAGNAFDCCRRDSSADHFGNYQAYAIWGSKTAKDELTVHLDAGVYYPIRLFYNNREADGALSFTFKTESNENTVSDFSEYFFSLDDTEEGCPGLISYDSSCASVKTSKIIGIDYHTETPNENLVPITKTIYHLGIPCTGTTTTPLCGSGFYDPLANKCVTINTSSTSSVTKTTSHTTSKEVSFHSSISSQKTLIPKSIPSPYGPIKSQSIPTEMETSSEISSSEYAFSDVISTPSHSPYTKKHSSLNSSSYTSTVIHSLTSYSISQGIFSTSLSEQNITSKSSTDKFSTATSMSNNITQSSIIISQFSTNNENYTTTSMHTSSDKISTETLNNSISTTTSILFSNSSTILKNNTTIISSDKDTHYHPVNPTIVCSTNKTEIICASITQPSISNSNNHWSSSVLKFNSTTVRSTLPSSAGSNETSINVPFSSSTESNTSTSSTSTSNSKMVRSTLPSSAGSNETSISVPFSSSTESNTSTSSTSTSNSKMVRSTLPSSAGSNETSINVPFSSSTESNTSTSSTSTSNSKTVRSTPFSSAGIIMTSLSQRNNKSASSYASSNSKCYNTADSCRKVHSTPSYLLTSSYTSEGVDYDCSLVSTKLKINDTNCVNNKHTTKSCLKTSVTTTIPTLEIKTARKSSSNTIGLHSYPTSSPNKSISSAPIIGYISSFKTIKTASPSYQTSDLTTITTITSLNNPGSTAVENTHESNDKSRKTSSNDISSKHSVIKETKDAVESSNKSHQTNTLKCSSIIIASSSHNSYESLGGTTLTLTLSKVYSPQNNDTLPFLEISEVNPSRTVLPESSKMMQYLTSTEERNKTARNTIATNIVSISTFHFEGEGNAIRMGYTQLLLMLIGIIVMNIGT
[1]
  glycan array binding signal (z-score): -0.218
[2]
  glycan array binding signal (z-score): -0.233
[3]
  glycan array binding signal (z-score): -0.232
[4]
  glycan array binding signal (z-score): -0.245
[5]
  glycan array binding signal (z-score): -0.214
[6]
  glycan array binding signal (z-score): -0.158
[7]
  glycan array binding signal (z-score): -0.038
[8]
  glycan array binding signal (z-score): -0.151
[9]
  glycan array binding signal (z-score): -0.262
[10]
  glycan array binding signal (z-score): 0.117
[11]
  glycan array binding signal (z-score): -0.242
[12]
  glycan array binding signal (z-score): 0.017
[13]
  glycan array binding signal (z-score): 0.054
[14]
  glycan array binding signal (z-score): 0.014
[15]
  glycan array binding signal (z-score): 1.7
[16]
  glycan array binding signal (z-score): -0.147
[17]
  glycan array binding signal (z-score): -0.062
[18]
  glycan array binding signal (z-score): 11.6
[19]
  glycan array binding signal (z-score): 10.2
[20]
  glycan array binding signal (z-score): 0.27
[21]
  glycan array binding signal (z-score): 0.088
[22]
  glycan array binding signal (z-score): 0.52
[23]
  glycan array binding signal (z-score): 0.184
[24]
  glycan array binding signal (z-score): -0.045
[25]
  glycan array binding signal (z-score): 1.84
[26]
  glycan array binding signal (z-score): 0.268
[27]
  glycan array binding signal (z-score): 0.919
[28]
  glycan array binding signal (z-score): -0.17
[29]
  glycan array binding signal (z-score): -0.119
[30]
  glycan array binding signal (z-score): 3.19
